Source: patent publication US10905706B2, “Compositions and methods to accelerate resolution of acute lung inflammation” (The Johns Hopkins University, priority 2015, dated 2021)

Test system: WT C57BL/6 mice
Test: IL-4 treatment after i.t. LPS, C57BL/6 mice

## IL-4: recombinant IL-4 cytokine (PeptroTech); in the examples given i.p. as a complex with anti-IL-4 antibody
Day 4, flow cytometry
  FIZZ1-expressing monocytes or macrophages within the lung: significantly more
i.t. LPS, vs sham
  MFI of FIZZ1 expression among FIZZ1-positive cells: similar
